In the supplement of paper PMC3334620:
The full ranking holds about 33,000 sequences; the median of “E-score (-0.5 to 0.5)” is about -0.016, and the highest 2% start at about 0.31. This is one part of the list.

These sequences were tested against Cst6 (UniProt P40535) (assay: PBM E-score (8-mer binding enrichment) (E-score (-0.5 to 0.5)); higher = stronger / more preferred TF binding; most listed sequences are background and not binding sites). Settings: protein concentration: 200 nM; construct: GST-DNA-binding domain.
Summary of the method: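 For each ungapped eight-base word taken together with its reverse complement, the Universal PBM Analysis Suite assigned an E-score. Binding data came from GST-tagged yeast transcription factors, applied at about 100-200 nM, on universal all-10-mer Agilent arrays made double-stranded by primer extension. Fluorescent anti-GST marked bound protein, and scans were normalised with masliner.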

Sequence | PBM E-score
AGACATCA | 0.0931
CAGGGTTA | -0.124
ACTGTCAC | 0.141
AGGTGTTA | 0.00729
CGACGTCC | -0.0701
ACAATAAA | 0.108
CCCGTTAA | -0.196
GCTCGAGA | -0.13
ACGACGCT | -0.205
ATAGCTAC | -0.00283
AACATTGG | -0.183
AAACAACA | 0.128
CGATTATC | -0.132
ACGCCACC | -0.128
ATAATTTG | 0.195
TCTGAAGA | -0.249
TCTCTGCA | -0.181
CCACATCG | -0.12
CGGGGATA | -0.14
AAGTTGTA | 0.19
AAGGGTCG | -0.0627
GTAGTGAC | 0.332
CGCATCCA | 0.0844
AGGCATTA | 0.133
CATCGACG | 0.0703

Sequence | PBM E-score
GGCTGTAA | 0.0549
CGGGGTCC | -0.272
GCTCGATA | -0.00747
AGATCTCA | -0.00275
GAGAACGA | 0.0186
CTATGGCA | -0.00602
TCATGCCA | 0.248
CAGCCCTC | -0.307
AGGCGGTG | -0.18
ACTAGCCG | -0.143
CCTCTGCA | -0.201
ACACGGCC | 0.0244
CCAACCAA | -0.117
CGCTGAGC | 0.0101
CCTACGAC | -0.166
TCGTAAAA | 0.232
AGTTGGGC | -0.0683
GGTTTTTA | 0.129
GACCGAAA | 0.0536
CCGCGGGA | -0.0755
ACCGTAAG | 0.109
AAGTCTCG | -0.173
CAAAAGTA | 0.229
ACTAACTA | -0.157
CCGGAGGA | -0.373

Sequence | PBM E-score
ATGGGCTA | 0.0676
TCTTTTAA | 0.176
CTCTCCAA | -0.0525
ATGGCACA | -0.0353
CCGTTGAG | -0.0651
ATTGCGGA | -0.0337
CCGCAAGG | -0.093
CTAACGCA | -0.0268
GAGTCCAC | -0.274
ACTCGAAT | -0.097
CGTAGCGA | -0.0921
AGATTATA | 0.14
AAACACGA | 0.0756
ATTCTCCG | -0.0303
CACACGAG | -0.205
ATTTTGTA | 0.234
TCAGCGAA | 0.0234
CAGCTTCA | -0.0557
GGTGGGTA | -0.123
CGCGACCA | -0.0267
CACGATTA | 0.0595
ATCCTTCG | -0.0186
GATGGCAC | -0.145
AGTCTGAC | -0.0842
AAAACTGA | 0.0779

Sequence | PBM E-score
GTGAGGTA | 0.119
CAGCCACC | -0.0579
AGTAATAT | 0.301
CTCAGACC | -0.22
CACAAAAG | 0.0872
CAGGGCTC | -0.262
CGAGAAAA | 0.0583
CTAATCGC | 0.0364
AAGAAGCA | 0.0924
GCGCTACC | -0.177
TTATCAAA | 0.223
TATGAACA | 0.16
GCGAGGCA | 0.237
AAGACGCT | -0.218
ATTTAATA | 0.338
AAATGGAA | 0.0873
GGAAATAC | 0.0425
AGCGTTAC | -0.0278
ATGGAGAA | 0.0595
AGTCCGAC | -0.244
AGAACGGA | 0.00921
CTGCAATC | -0.0213
TAAGATGA | 0.229
ATCCGTAG | -0.255
GACAATAC | 0.157

Sequence | PBM E-score
CCTCGACA | -0.106
CTGTCAGA | -0.107
CTACAGTA | 0.0158
AAAACTCG | 0.107
TCACTGAA | 0.126
CATCTCTC | 0.0128
AGTCGTTC | -0.0621
AGATGGAT | -0.328
ACTCAAAA | 0.192
CACCTCGA | 0.119
CCCAGGTC | -0.242
ATTCTTAC | 0.315
CCTGCGCC | -0.112
ATTAGAGG | -0.0814
ATATAGAC | 0.0893
CACCGTAA | 0.107
CCCCAGAC | -0.237
ACGCAACG | 0.235
CTAAGATC | 0.0376
CCCAATAG | -0.116
AGCGTTTC | -0.151
GCGTCCGA | -0.131
GGTAGGTA | -0.226
ATCCTGTG | -0.189
GATAGACA | -0.0434

Sequence | PBM E-score
CCAGTCGG | -0.127
ATGGGCGG | -0.145
AATAATTA | 0.325
AAGTATGG | 0.0183
ATTAGTAC | 0.182
CATTAGCA | 0.13
TGACCTAA | 0.362
AGGTGACT | 0.153
CTTTCCGC | 0.0117
CCACATTC | -0.139
GCAGATCC | -0.0905
AGGGGGCC | -0.332
ACGTAGCA | 0.122
AAGGTTAA | -0.0367
CGACGACC | -0.143
CGCCTTCC | -0.151
ATTCCAAC | 0.0296
GCCCGGCC | -0.332
AAACATTC | 0.0215
GGCGGATA | -0.0938
AGATTAGG | 0.012
CGTGCGTA | 0.133
GCCAACCA | -0.0975
AGCCGGAA | -0.141
CGAGCACA | -0.109

Sequence | PBM E-score
GAATGTAA | 0.21
CGCGCTAA | 0.146
AGCCTTTG | -0.276
AACGGAAT | 0.096
ACAGCCGA | -0.242
CCTCTCCG | -0.304
AGTGACAA | 0.169
AGTAGGCA | 0.205
ACGACTCG | -0.133
TCACGACA | 0.18
TTACGAAA | 0.284
AACTATTG | 0.161
AAGCCATT | 0.058
AGTAACCC | -0.0846
CCCAAAGC | -0.115
ATAGCTTC | -0.00795
GATACTAC | 0.0654
CTCGGGTC | -0.156
AGGAGGCC | -0.246
GAATATAA | 0.111
CGGTAATA | 0.196
AAGAAAGA | 0.0706
